The assay concerns TYKNU. Nature of the assay: fractional viability relative to vehicle; TYKNU is a high-grade serous ovarian cancer line; higher = less growth inhibition. As to conditions: 72 h, genotype: OPA1 knockout (sgOPA1 #2). The gist of the method:
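Drug treatment lasted 72 h, with cells grown at 37 °C in 5% CO2 in RPMI 1640 supplemented with 10% FBS. Beforehand, TYKNU control cells or their lentiCRISPRv2 knockout derivatives had been seeded at 500 cells per well into drug-stamped 384-well plates carrying a ~2100-compound library at 2 or 10 μM, in duplicate. Viability came from Cell Titer Glo luminescence, with averaged duplicate treatment wells normalised to duplicate control wells in the same plate position.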

Each structure is given as a SMILES string. Where a name gives a salt, the structure may show the parent alone. Whole data set: some 2,000 compounds, median “fractional viability relative to vehicle” near 0.92, cut for the lowest 2% near 0.11. Some of the results follow.

Regarding `O=C(Nc1cccc(Cl)c1)c1ccccn1`, the fractional viability (2uM) is 1.19 and the fractional viability (10uM) is 1.02.

With `Clc1ccc(CCC(Cn2ccnc2)Sc2c(Cl)cccc2Cl)cc1` (stereo not drawn) [Butoconazole nitrate], the fractional viability by setting is: (2uM) 1.09; (10uM) 0.872.

For the compound `C[C@@]1(C(=O)Nc2ccc(F)nc2)CCCN1c1nc(Nc2cc(C3CC3)n[nH]2)c2cccn2n1`, the fractional viability by setting is: (2uM) 0.877; (10uM) 0.499.

On to `CN(C)C(=O)Nc1cccc(-c2ccc(N(C)C)cc2)c1` [Atglistatin], for which the fractional viability is, setting by setting: (2uM) 0.904; (10uM) 0.794.

On to `N#Cc1ccc(C(c2ccc(C#N)cc2)n2cncn2)cc1` [Letrozole], for which the fractional viability by setting is: (2uM) 1.15; (10uM) 0.978.

As to `C=C1CC[C@H](O)C/C1=C/C=C1\CCC[C@]2(C)[C@@H]([C@H](C)CCCC(C)C)CC[C@@H]12` [Vitamin D3], the fractional viability is, setting by setting: (2uM) 1.06; (10uM) 0.555.

Regarding `CC(C)(O)[C@H]1CC[C@@](C)([C@H]2[C@@H](O)C[C@@]3(C)[C@@H]4C[C@H](O[C@@H]5O[C@H](CO)[C@@H](O)[C@H](O)[C@H]5O)[C@H]5C(C)(C)[C@@H](O[C@@H]6OC[C@@H](O)[C@H](O)[C@H]6O)CC[C@@]56C[C@@]46CC[C@]23C)O1` [Astragaloside A], the fractional viability runs as follows: (2uM) 0.751; (10uM) 0.76.

On to `CC(=O)S[C@@H]1CC2=CC(=O)CC[C@]2(C)[C@H]2CC[C@@]3(C)[C@@H](CC[C@@]34CCC(=O)O4)[C@H]12` [Spironolactone], for which the fractional viability reads like this: (2uM) 0.979; (10uM) 0.899.

As to `C#Cc1cccc(Nc2ncnc3cc(OC)c(OCCCCCCC(=O)NO)cc23)c1`, the fractional viability runs as follows: (2uM) 0.404; (10uM) 0.212.

Consider `CCCc1cc(C(N)=S)ccn1` [Protionamide], for which the fractional viability reads like this: (2uM) 1.17; (10uM) 0.922.

With `COc1cccc2c1c(O)c(C(=O)N(C)c1ccc(C(F)(F)F)cc1)c(=O)n2C` [Tasquinimod], the fractional viability was 0.878 (2uM) and 0.86 (10uM).

Turning to `COc1cc2c(Nc3ccc(NC(=O)c4ccccc4)cc3)ncnc2cc1OCCCN1CCOCC1`, the fractional viability was 1.02 (2uM) and 0.584 (10uM).

Compound `CC(=O)Nc1ccc(C(=O)Nc2ccccc2N)cc1` [CI994 (Tacedinaline)] had a fractional viability (2uM) of 0.755 and a fractional viability (10uM) of 0.434.

As for `O=C(O)[C@]1(Cc2cccc(Nc3nccs3)n2)CC[C@@H](Oc2cccc(Cl)c2F)CC1`, the fractional viability runs as follows: (2uM) 0.727; (10uM) 0.623.

In turn, `CN1CCC(=C2c3ccccc3C=Cc3ccccc32)CC1` [Cyproheptadine HCl] returned a fractional viability (2uM) of 0.991 and a fractional viability (10uM) of 0.873.

As to `CO[C@H]1/C=C/O[C@@]2(C)Oc3c(C)c(O)c4c(O)c(c(/C=N/N5CCN(C6CCCC6)CC5)c(O)c4c3C2=O)NC(=O)/C(C)=C\C=C\[C@H](C)[C@H](O)[C@@H](C)[C@@H](O)[C@@H](C)[C@H](OC(C)=O)[C@@H]1C` [Rifapentine], the fractional viability reads like this: (2uM) 1.04; (10uM) 0.781.

Consider `N=C(N)NC(=N)NCCc1ccccc1` [Phenformin HCl], for which the fractional viability by setting is: (2uM) 1.01; (10uM) 0.94.

With `C[C@H]1O[C@H](O[C@H]2[C@H](O)[C@@H](O)[C@@H](O[C@H]3[C@H](O)[C@@H](O)C(O)O[C@@H]3CO)O[C@@H]2CO)[C@H](O)[C@@H](O)[C@@H]1N[C@H]1C=C(CO)[C@@H](O)[C@H](O)[C@H]1O` (stereo partly drawn) [Acarbose], the fractional viability reads like this: (2uM) 1.23; (10uM) 0.948.

`C[C@@H](Oc1ccc2[nH]nc(/C=C/c3cnn(CCO)c3)c2c1)c1c(Cl)cncc1Cl`: the fractional viability (2uM) was 0.589 and the fractional viability (10uM) amounted to 0.277.

As to `CC[C@H]1[C@@H](O)[C@@H]2[C@H](CC[C@]3(C)[C@@H]([C@H](C)CCC(=O)O)CC[C@@H]23)[C@@]2(C)CC[C@@H](O)C[C@@H]12` [Obeticholic Acid], the fractional viability came out at 0.836 (2uM) and 0.916 (10uM).

In the case of `CNC1CCCN(c2c(F)cc3c(=O)c(C(=O)O)cn(C4CC4)c3c2OC)C1` (stereo not drawn) [Balofloxacin], the fractional viability was determined as 1 (2uM) and 1.04 (10uM).

For the compound `O=C(NC[C@H](O)CN1CCc2ccccc2C1)c1cc(NC2COC2)ncn1`, the fractional viability amounted to 0.875 (2uM) and 0.845 (10uM).

In turn, `COc1cc2ncnc(Sc3nnc(C)s3)c2cc1OC` displayed a fractional viability (2uM) of 0.789 and a fractional viability (10uM) of 0.16.

Regarding `O=C1NC(=O)C(c2cnc3ccccn23)=C1c1cn2c3c(cc(F)cc13)CN(C(=O)N1CCCCC1)CC2`, the fractional viability is 0.58 (2uM) and 0.68 (10uM).

`Cc1ccc(S(=O)(=O)c2ccc([N+](=O)[O-])o2)cc1`: the fractional viability runs as follows: (2uM) 0.0667; (10uM) 0.0291.

In the case of `NCCc1c[nH]cn1` [Histamine 2HCl], the fractional viability by setting is: (2uM) 0.923; (10uM) 0.835.

On to `OC(Cn1cncn1)(Cn1cncn1)c1ccc(F)cc1F` [Fluconazole], for which the fractional viability was found to be 1.04 (2uM) and 0.921 (10uM).

As for `CC(=O)Nc1cccc(-n2c(=O)n(C3CC3)c(=O)c3c(Nc4ccc(I)cc4F)n(C)c(=O)c(C)c32)c1`, the fractional viability runs as follows: (2uM) 0.379; (10uM) 0.38.

Take `C[C@@H](NCCCc1cccc(C(F)(F)F)c1)c1cccc2ccccc12` [Cinacalcet HCl]: the fractional viability reads like this: (2uM) 1.04; (10uM) 0.83.

For `Nc1[nH]cnc2ncnc1-2` [Adenine HCl], the fractional viability came to 0.979 (2uM) and 0.867 (10uM).

Regarding `CC(C)(C)c1cnc(CSc2cnc(NC(=O)C3CCNCC3)s2)o1`, the fractional viability reads like this: (2uM) 0.573; (10uM) 0.517.

For `CC(C)c1c(C(=O)Nc2ccccc2)c(-c2ccccc2)c(-c2ccc(F)cc2)n1CC[C@@H](O)C[C@@H](O)CC(=O)O` [Atorvastatin Calcium], the fractional viability is 0.968 (2uM) and 0.649 (10uM).

Regarding `CCN[C@H]1CN(CCCOC)S(=O)(=O)c2sc(S(N)(=O)=O)cc21` [Brinzolamide], the fractional viability runs as follows: (2uM) 0.978; (10uM) 0.803.

In the case of `COC(=O)Nc1nc2cc(C(=O)c3cccs3)ccc2[nH]1` [Nocodazole], the fractional viability by setting is: (2uM) 0.48; (10uM) 0.479.
